Reference: paper PMC12847774, “SERPINB3 enhances NPM1 sumoylation via inhibiting SENP3’s activity and promotes lung tumorigenesis” (Cell Death & Disease, 2025)
These are yes or no findings as the source states them, for the method shown. For part of these data: Binding seen in cells or lysates may run through a third protein. Some results given as binding are weak or reduced against the parent protein; the word gives no strength. For part of these data: Sequences can lack the tags named with a protein. Blank lines part the entries; values can stand above or below the molecule they belong to.

Amino acid sequences for entries named in this document (tags omitted). A change or cut given only in a name is not applied to a line headed by its entry. Chains listed by the source or under a name are the forms on record and can include a tag or linker.
UniProt Q9H4L4: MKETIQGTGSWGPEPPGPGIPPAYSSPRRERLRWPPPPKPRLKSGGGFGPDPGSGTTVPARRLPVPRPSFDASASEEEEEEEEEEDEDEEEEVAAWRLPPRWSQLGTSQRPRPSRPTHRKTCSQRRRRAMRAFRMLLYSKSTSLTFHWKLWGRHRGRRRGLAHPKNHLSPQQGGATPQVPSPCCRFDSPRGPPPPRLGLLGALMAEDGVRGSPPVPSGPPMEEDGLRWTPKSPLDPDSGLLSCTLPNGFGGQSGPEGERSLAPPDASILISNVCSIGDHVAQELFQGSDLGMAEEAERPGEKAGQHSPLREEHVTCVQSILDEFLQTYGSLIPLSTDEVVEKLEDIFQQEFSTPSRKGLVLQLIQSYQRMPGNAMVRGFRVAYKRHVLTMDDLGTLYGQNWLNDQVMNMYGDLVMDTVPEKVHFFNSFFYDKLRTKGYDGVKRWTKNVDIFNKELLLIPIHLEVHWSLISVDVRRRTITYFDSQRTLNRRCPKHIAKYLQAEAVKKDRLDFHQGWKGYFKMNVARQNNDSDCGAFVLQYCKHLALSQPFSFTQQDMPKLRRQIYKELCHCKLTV
SENP3 Δ265-287 deletion mutant (Q9H4L4, form named): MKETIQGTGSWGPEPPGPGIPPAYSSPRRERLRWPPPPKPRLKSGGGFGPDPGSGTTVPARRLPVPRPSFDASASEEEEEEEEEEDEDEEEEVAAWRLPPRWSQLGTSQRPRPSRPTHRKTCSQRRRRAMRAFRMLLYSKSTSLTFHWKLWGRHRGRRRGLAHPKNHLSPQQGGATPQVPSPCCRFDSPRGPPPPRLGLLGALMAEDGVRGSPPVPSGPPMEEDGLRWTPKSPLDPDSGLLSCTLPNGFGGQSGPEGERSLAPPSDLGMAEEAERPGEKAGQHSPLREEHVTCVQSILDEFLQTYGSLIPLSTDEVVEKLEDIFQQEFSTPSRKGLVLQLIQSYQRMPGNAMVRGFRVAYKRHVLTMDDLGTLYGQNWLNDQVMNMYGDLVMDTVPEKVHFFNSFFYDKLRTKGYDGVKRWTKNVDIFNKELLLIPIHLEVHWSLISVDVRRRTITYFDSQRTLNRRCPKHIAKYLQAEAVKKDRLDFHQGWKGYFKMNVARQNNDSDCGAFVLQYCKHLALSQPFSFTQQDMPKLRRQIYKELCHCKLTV
UniProt P06748: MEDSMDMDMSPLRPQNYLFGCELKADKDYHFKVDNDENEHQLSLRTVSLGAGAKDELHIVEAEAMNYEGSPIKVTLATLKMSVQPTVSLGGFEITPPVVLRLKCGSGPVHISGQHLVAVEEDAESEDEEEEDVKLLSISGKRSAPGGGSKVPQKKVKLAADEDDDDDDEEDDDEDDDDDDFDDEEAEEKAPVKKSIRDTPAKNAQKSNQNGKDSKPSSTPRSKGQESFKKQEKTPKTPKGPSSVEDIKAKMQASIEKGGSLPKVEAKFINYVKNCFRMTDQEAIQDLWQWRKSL

Tests used:
His-SENP3 (HEK293T) = His-SENP3 (HEK293T) (UniProt Q9H4L4); experiment: pull-down + SEC; His-SENP3 enriched on Ni-NTA beads from lysate of HEK293T cells transfected with Flag-SERPINB3, HA-NPM1 and His-SENP3, eluted with 300 mM imidazole, then Superose 6 Increase 10/300 in 20 mM Tris-HCl pH 8.0, 150 mM NaCl, 1% glycerol; fractions blotted
Flag-SERPINB3 (HEK293T) = molecular target: T1, Flag-SERPINB3 (HEK293T) (UniProt P29508); experiment: SEC; lysate of HEK293T cells transfected with Flag-SERPINB3, HA-NPM1 and His-SENP3 loaded directly on Superose 6 Increase 10/300; fractions blotted
T1 sequence: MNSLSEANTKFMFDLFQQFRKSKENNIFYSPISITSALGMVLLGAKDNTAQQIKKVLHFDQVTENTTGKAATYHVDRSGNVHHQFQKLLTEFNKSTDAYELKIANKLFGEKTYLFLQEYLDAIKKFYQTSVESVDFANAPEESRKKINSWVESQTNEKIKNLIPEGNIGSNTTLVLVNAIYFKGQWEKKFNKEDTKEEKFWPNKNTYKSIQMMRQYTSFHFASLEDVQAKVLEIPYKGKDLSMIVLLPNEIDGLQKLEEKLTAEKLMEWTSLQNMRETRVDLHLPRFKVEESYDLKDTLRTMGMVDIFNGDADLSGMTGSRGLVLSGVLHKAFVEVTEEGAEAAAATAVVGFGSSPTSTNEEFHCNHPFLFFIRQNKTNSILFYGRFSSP

HA-NPM1 (HEK293T) = HA-NPM1 (HEK293T) (UniProt P06748); experiment: as above
[1] = molecular target: T2, Flag-SERPINB3 purified protein (UniProt P29508); experiment: co-IP; in vitro immunoprecipitation with Flag antibody using purified recombinant proteins; both purified
T2 sequence: T1 sequence

[2] = molecular target: T3, SERPINB3, endogenous (human (endogenous in PC9, H1975, HCC4006)) (UniProt P29508); experiment: co-IP; IP of endogenous SERPINB3 or endogenous NPM1 from nuclear lysates of PC9, H1975 and HCC4006 cells; IgG as IP control; IP buffer 50 mM Tris-HCl pH 8.0, 150 mM NaCl, 1 mM EDTA, 0.5% NP-40
T3 sequence: T1 sequence

Flag-SERPINB3 [3] = molecular target: T4, Flag-SERPINB3 (UniProt P29508); experiment: co-IP; anti-Flag IP from whole lysates of PC9 cells overexpressing Flag-SERPINB3; protein A/G magnetic beads, IP buffer 50 mM Tris-HCl pH 8.0, 150 mM NaCl, 1 mM EDTA, 0.5% NP-40; blots for SENP3 and NPM1
T4 sequence: T1 sequence

Flag-SERPINB3 [4] = molecular target: T4, Flag-SERPINB3; experiment: SEC; lysate of PC9 cells overexpressing Flag-SERPINB3 on Superose 6 Increase 10/300; fractions blotted
[5] = molecular target: nucleophosmin (NPM1), endogenous (human (endogenous in PC9, H1975, HCC4006)) (UniProt P06748); experiment: as above
Flag-SERPINB3 [6] = molecular target: T4, Flag-SERPINB3; experiment: co-IP; anti-Flag IP from nuclear fractions of PC9 cells overexpressing Flag-SERPINB3; blots for SENP3 and NPM1
VN-Flag-SERPINB3 = molecular target: T5, VN-Flag-SERPINB3 (UniProt P29508); experiment: split reporter; BiFC with Venus fragments VN (1-173) and VC (155-239) in transfected PC9 cells, imaged after 36-48 h
T5 sequence: T1 sequence

VN-HA-NPM1 = VN-HA-NPM1 (UniProt P06748); experiment: as above

Molecule: HA-NPM1 (HEK293T) (from UniProt P06748 1-294)
binding (His-SENP3 (HEK293T)): binds
binding (Flag-SERPINB3 (HEK293T)): binds

Molecule: His-SENP3 (HEK293T) (from UniProt Q9H4L4 1-574) (enzyme)
binding (HA-NPM1 (HEK293T)): binds
binding (Flag-SERPINB3 (HEK293T)): binds

Molecule: VC-HA-NPM1 (from UniProt P06748 1-294)
binding (VN-Flag-SERPINB3): binds

Molecule: VC-HA-SENP3 (from UniProt Q9H4L4 1-574) (enzyme)
binding (VN-Flag-SERPINB3): binds
binding (VN-HA-NPM1): binds

Results, then the molecule that gave them:

binding [1]: no binding
Molecule: SENP3 Δ265-287 deletion mutant (from UniProt Q9H4L4 1-574) (enzyme)

binding [2]: binds
binding (Flag-SERPINB3 [3]): binds
binding (Flag-SERPINB3 [4]): binds
binding [5]: binds
binding (Flag-SERPINB3 [6]): binds
Molecule: SUMO-specific proteinase 3 (SENP3), endogenous (from UniProt Q9H4L4 1-574) (enzyme)

binding [2]: binds
binding (Flag-SERPINB3 [3]): binds
binding (Flag-SERPINB3 [4]): binds
binding (Flag-SERPINB3 [6]): binds
Molecule: nucleophosmin (NPM1), endogenous (from UniProt P06748 1-294)

binding (His-SENP3 (HEK293T)): binds
B1: Flag-SERPINB3 purified protein (natural protein, UniProt P29508 1-390, looked up)
chain: T1 sequence
notes: SERPINB3; cloned into pET-28a(+) between BamHI and HindIII; the methods name only pET-28a (+)-SERPINB3; also called SCCA1; pET-28a (+)-SERPINB3; source: E. coli BL21(DE3), purified (Ni-NTA)
